Assay results: PubChem BioAssay AID588342 (National Center for Advancing Translational Sciences (NCATS), 2011)
Screen size: about 360,000 compounds; about 25,000 (6.9%) were called active. Inconclusive means that the source gave no clear call. Such entries were picked first, then a sample of the others. Calls come from the whole dose curve; as a rule, active = well fitted inhibition curve with a large enough effect; inconclusive = small, poorly fitted or top-dose-only effect; inactive = flat fitted curve, though single readings scatter. A potency beside an inconclusive call is a rough fit, not a confirmed value.

biological target: Luciferin 4-monooxygenase (Photinus pyralis) (UniProt P08659); test: qHTS profiling assay for firefly luciferase inhibitor/activator using purifed enzyme and Km concentrations of substrates (counterscreen for miR-21 project); conditions: purified FLuc, luminescence inhibition; series mostly up to 57.5 µM; note: nearly all actives have a fitted effect of over 55% in size
Summary of the method: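 Biochemical qHTS of compounds, final roughly 60 µM downward over six points, against 10 nM purified firefly luciferase using Km concentrations of substrates (10 uM D-luciferin, 10 uM ATP) in Tris acetate pH 7.5 buffer; luminescence output.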
Potency is the fitted concentration of half-maximal effect; tags give direction and shape of the fitted curve.

UniProt P08659, sequence (P08659 whole entry, looked up): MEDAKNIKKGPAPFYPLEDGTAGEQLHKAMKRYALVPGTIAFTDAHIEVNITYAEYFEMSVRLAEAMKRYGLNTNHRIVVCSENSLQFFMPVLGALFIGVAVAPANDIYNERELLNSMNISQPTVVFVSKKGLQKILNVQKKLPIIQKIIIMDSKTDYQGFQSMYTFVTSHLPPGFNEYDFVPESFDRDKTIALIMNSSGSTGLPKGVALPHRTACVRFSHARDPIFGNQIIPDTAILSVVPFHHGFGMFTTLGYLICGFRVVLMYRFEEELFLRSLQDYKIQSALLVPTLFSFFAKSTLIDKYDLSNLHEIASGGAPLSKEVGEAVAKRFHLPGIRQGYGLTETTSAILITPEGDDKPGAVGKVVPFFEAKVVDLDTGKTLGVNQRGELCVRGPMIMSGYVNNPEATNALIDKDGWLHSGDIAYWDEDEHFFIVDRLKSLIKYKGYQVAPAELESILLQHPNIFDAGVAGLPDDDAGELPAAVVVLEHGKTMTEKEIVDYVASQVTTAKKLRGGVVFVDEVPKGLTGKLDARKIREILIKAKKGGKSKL

Row | SMILES | Potency
1 | O=C(CN1CCCCC1)Nc1ccc(Br)cc1[N+](=O)[O-] | inconclusive: 19 µM [inhibitor, single point]
2 | CCc1ccc(/C(C)=N/NC(=O)c2c[nH]c3ccccc23)s1 | inconclusive: 23.9 µM [inhibitor, partial curve]
3 | O/N=C/c1ccnc(SCc2ccc(Cl)cc2)n1 | inconclusive: 23.9 µM [inhibitor, partial curve]
4 | CN1CCN(c2ccccc2NC(=O)c2cccc(OCc3ccccc3)c2)CC1 | inactive
5 | Cc1c(Cl)ccc2c(C(=O)NCCN3CCCCC3)cc(-c3ccccn3)nc12 | inactive
6 | O=C(Cc1ccccc1)Nc1nc2ccccc2[nH]1 | inconclusive: 13.5 µM [inhibitor, partial curve]
7 | COc1cc2c(cc1NC(=O)COC(=O)CNS(=O)(=O)c1ccc(C)cc1)oc1ccccc12 | inconclusive: 23.9 µM [inhibitor, single point]
8 | Cc1ccc(-c2nc3ccccc3nc2-c2ccccc2)cc1 | inactive
9 | N#CC(c1ccc(Cl)cc1)(c1ncc(C(F)(F)F)cc1Cl)N1CCOCC1 (configuration not stated) | inactive
10 | COc1cc2c(cc1NC(=O)CSc1nnc(COc3ccc(Cl)cc3)n1C)oc1ccccc12 | inconclusive: 12 µM [inhibitor, partial curve, poor fit]
11 | CCCc1cc(=O)[nH]c(SCC(=O)c2cc(C)n(-c3cc(C)on3)c2C)n1 | inconclusive: 16.9 µM [inhibitor, partial curve]
12 | COc1cccc(Nc2nc(-c3cccnc3)cs2)c1 | active: 4.78 µM
13 | N#Cc1c(NC(=O)C2CC(Cl)=CCC2C(=O)O)sc2c1CCCC2 (configuration not stated) | inconclusive: 10.7 µM [inhibitor, partial curve]
14 | CS(=O)(=O)NNC(=O)c1cc2cc3ccccc3nc2s1 | inconclusive: 16.9 µM [inhibitor, partial curve, poor fit]
15 | COc1ccccc1-c1ccc(SCc2cccc(F)c2)nn1 | active: 23.9 µM
16 | Cc1cc(=O)[nH]c(N/N=C/c2sccc2C)n1 | inconclusive: 26.9 µM [inhibitor, partial curve, poor fit]
17 | Cc1ccc(/C=C/C(=O)Nc2nc3ccccc3[nH]2)cc1 | inconclusive: 0.675 µM [inhibitor, full curve]
18 | Cc1ccc(Cn2ccc(NC(=O)c3cc(-c4ccc(F)cc4)on3)n2)cc1 | inactive
19 | COc1ccccc1CNC(=O)c1ccc(N2CCCC2)c(NC(=O)NCc2ccccc2)c1 | inactive
20 | OC(COc1ccc2ccccc2c1)CN1CCOCC1 (configuration not stated) | inconclusive: 30.1 µM [inhibitor, partial curve, poor fit]
21 | CCN(CC)S(=O)(=O)c1nnc(NC(=O)COc2ccccc2Cl)s1 | inconclusive: 4.78 µM [inhibitor, full curve]
22 | COCCNC(=O)COC(=O)c1cccnc1SC | inactive
23 | COc1ccc(NC(=S)c2ccc(N(C)C)cc2)cc1 | active: 2.13 µM
24 | CCOc1ccc(C(=O)Nc2cccc(NC(=O)c3ccco3)c2)cc1Cl | inconclusive: 5.36 µM [inhibitor, partial curve, poor fit]

Row | SMILES | Potency
25 | COC(=O)c1c(-c2cccc(C)c2)csc1NC(=O)C1CCCO1 (configuration not stated) | inconclusive: 30.1 µM [inhibitor, partial curve, poor fit]
26 | O=C(CN1C2=NCCN2c2ccccc21)c1cccs1 | inactive
27 | Cc1ccc(C(=O)NCC(=O)N/N=C/c2cccs2)cc1C | inactive
28 | COc1ccccc1/C=C1\SC(N2CCC(C)CC2)=NC1=O | active: 12 µM
29 | COc1ccc(C(=O)N2CCNC(=O)C2)cc1S(=O)(=O)Nc1ccc(Br)cc1 | inactive
30 | O=C(Nc1ccc(Br)cc1)C1CCN(c2cnccn2)CC1 | inactive
31 | Cc1ccc(NC(=O)COC(=O)C2=COCCO2)c([N+](=O)[O-])c1 | inconclusive: 37.9 µM [inhibitor, partial curve, poor fit]
32 | COc1ccc(CC(=O)N2CCc3ccccc3C2)cc1 | inconclusive: 21.3 µM [inhibitor, partial curve, poor fit]
33 | Cc1[nH]n(-c2nc(-c3ccccc3F)cc(=O)[nH]2)c(=O)c1CCO | inconclusive: 37.9 µM [inhibitor, partial curve, poor fit]
34 | COc1ccc(CCNC(=O)c2ccc3ccccc3n2)cc1 | inconclusive: 23.9 µM [inhibitor, single point]
35 | O=C(CNC(=O)c1ccc2c(c1)OCO2)Nc1ncccc1O | inconclusive: 26.9 µM [inhibitor, single point]
36 | O=C(Nc1nccs1)c1ccc[nH]c1=O | inconclusive: 26.9 µM [inhibitor, partial curve, poor fit]
37 | O=C(OCC(=O)N1CCCCCC1)c1cccs1 | active: 13.5 µM
38 | C=C(C)C(=O)N1CC2(CC(c3cccc(NC(=O)COc4ccc(Cl)cc4)c3)=NO2)C[C@@H]1C(N)=O (some centres not stated) | active: 12 µM
39 | CCOC(=O)[C@H]1[C@H]2COc3ccc(Cl)cc3[C@@H]2N2C(=O)CN(Cc3ccco3)C(=O)[C@@]12C | inactive
40 | O=C(c1cc(-c2ccccc2)on1)N1CCN(c2ccccc2)CC1 | active: 23.9 µM
41 | Brc1ccc(Nc2ncnc3[nH]ncc23)cc1 | inconclusive: 21.3 µM [inhibitor, partial curve, poor fit]
42 | CCN(CC)CCN1C(=O)c2ccccc2NC1c1ccc(N(C)C)cc1 (configuration not stated) | active: 23.9 µM
43 | Cc1oc2ccc(O)c(CN(C)Cc3ccccc3)c2c1C(=O)Nc1cccc(C(F)(F)F)c1 | inactive
44 | COc1cc(NC(=O)Cn2c(=O)oc3cc(S(=O)(=O)N4CCCCCC4)ccc32)cc(OC)c1 | inconclusive: 37.9 µM [inhibitor, partial curve, poor fit]
45 | COc1ccc(C(=O)N/N=C/c2cccc3cccnc23)cc1 | active: 7.57 µM
46 | CCC(=O)Nc1ccc2nc(SCC(=O)N3CCCC3)sc2c1 | inconclusive: 37.9 µM [inhibitor, partial curve, poor fit]
47 | COc1ccc(NC(=O)CN(C)C(=O)CCCNC(=O)c2ccc(Cl)cc2)cc1 | inconclusive: 10.7 µM [inhibitor, partial curve]
